# Laboratory results published in the supplement of paper PMC8728848.
# The other results are listed elsewhere or left out.
# Legend:
# Test in all cases: glycan array binding signal (z-score within array); higher = stronger binding
# Details in all cases: glycan notation: IUPAC condensed, linker removed
# [1] = molecular target: Man(a1-2)Man(a1-2)Man(a1-3)Man
# How it was run: (§1)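 The binding signal is a Z-score computed within each array and averaged over linkers. Arrays of the same protein sequence at different concentrations or buffers were also averaged together. Data originate from 3228 arrays in the Consortium for Functional Glycomics database, kept only where the protein sequence was available.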
# [2] = molecular target: Man(a1-2)Man(a1-2)Man(a1-6)[Man(a1-3)]Man
# How it was run: as §1
# Man(a1-2)Man(a1-3)Man = molecular target: Man(a1-2)Man(a1-3)Man
# How it was run: as §1
# [3] = molecular target: Man(a1-2)Man(a1-3)[Man(a1-2)Man(a1-6)]Man
# How it was run: as §1
# [4] = molecular target: Man(a1-2)Man(a1-3)[Man(a1-2)Man(a1-6)]Man(a1-6)[Man(a1-2)Man(a1-2)Man(a1-3)]Man
# How it was run: as §1
# [5] = molecular target: Man(a1-2)Man(a1-3)[Man(a1-2)Man(a1-6)]Man(a1-6)[Man(a1-2)Man(a1-2)Man(a1-3)]Man(b1-4)GlcNAc(b1-4)GlcNAc
# How it was run: as §1
# [6] = molecular target: Man(a1-2)Man(a1-3)[Man(a1-6)]Man(a1-6)[Man(a1-2)Man(a1-3)]Man(b1-4)GlcNAc(b1-4)GlcNAc
# How it was run: as §1
# [7] = molecular target: Man(a1-2)Man(a1-6)[Man(a1-3)]Man(a1-6)[Man(a1-2)Man(a1-2)Man(a1-3)]Man
# How it was run: as §1
# [8] = molecular target: Man(a1-2)Man(a1-6)[Man(a1-3)]Man(a1-6)[Man(a1-2)Man(a1-2)Man(a1-3)]Man(b1-4)GlcNAc(b1-4)GlcNAc
# How it was run: as §1
# Man(a1-3)[Man(a1-6)]Man = molecular target: Man(a1-3)[Man(a1-6)]Man
# How it was run: as §1
# [9] = molecular target: Man(a1-3)[Man(a1-6)]Man(a1-6)[Man(a1-2)Man(a1-3)]Man(b1-4)GlcNAc(b1-4)GlcNAc
# How it was run: as §1
# [10] = molecular target: Man(a1-3)[Man(a1-6)]Man(a1-6)[Man(a1-3)]Man
# How it was run: as §1
# [11] = molecular target: Man(a1-3)[Man(a1-6)]Man(a1-6)[Man(a1-3)]Man(b1-4)GlcNAc(b1-4)GlcNAc
# How it was run: as §1
# [12] = molecular target: Man(a1-3)[Man(a1-6)]Man(b1-4)GlcNAc(b1-4)GlcNAc
# How it was run: as §1
# Man(a1-6)Man = molecular target: Man(a1-6)Man
# How it was run: as §1
# Man(b1-4)GlcNAc = molecular target: Man(b1-4)GlcNAc
# How it was run: as §1
# Neu5Ac(a2-3)Gal = molecular target: Neu5Ac(a2-3)Gal
# How it was run: as §1
# [13] = molecular target: Neu5Ac(a2-3)Gal(b1-3)GalNAc
# How it was run: as §1
# [14] = molecular target: Neu5Ac(a2-3)Gal(b1-3)GalNAc(b1-3)Gal(a1-4)Gal(b1-4)Glc
# How it was run: as §1
# [15] = molecular target: Neu5Ac(a2-3)Gal(b1-3)GalNAc(b1-3)Gal(b1-4)GlcNAc
# How it was run: as §1
# [16] = molecular target: Neu5Ac(a2-3)Gal(b1-3)GalNAc(b1-4)[Neu5Ac(a2-3)]Gal(b1-4)Glc
# How it was run: as §1
# [17] = molecular target: Neu5Ac(a2-3)Gal(b1-3)GalNAc6S
# How it was run: as §1
# [18] = molecular target: Neu5Ac(a2-3)Gal(b1-3)GlcNAc
# How it was run: as §1
# [19] = molecular target: Neu5Ac(a2-3)Gal(b1-3)GlcNAc(b1-3)Gal(b1-3)GlcNAc
# How it was run: as §1
# [20] = molecular target: Neu5Ac(a2-3)Gal(b1-3)GlcNAc6S
# How it was run: as §1
# [21] = molecular target: Neu5Ac(a2-3)Gal(b1-3)[Fuc(a1-4)]GlcNAc
# How it was run: as §1
# [22] = molecular target: Neu5Ac(a2-3)Gal(b1-3)[Fuc(a1-4)]GlcNAc(b1-3)Gal(b1-3)[Fuc(a1-4)]GlcNAc
# How it was run: as §1
# [23] = molecular target: Neu5Ac(a2-3)Gal(b1-3)[Fuc(a1-4)]GlcNAc(b1-3)Gal(b1-4)[Fuc(a1-3)]GlcNAc
# How it was run: as §1
# [24] = molecular target: Neu5Ac(a2-3)Gal(b1-3)[Neu5Ac(a2-3)Gal(b1-4)]GlcNAc
# How it was run: as §1
# [25] = molecular target: Neu5Ac(a2-3)Gal(b1-3)[Neu5Ac(a2-6)]GalNAc
# How it was run: as §1
# Neu5Ac(a2-3)Gal(b1-4)Glc = molecular target: Neu5Ac(a2-3)Gal(b1-4)Glc
# How it was run: as §1
# [26] = molecular target: Neu5Ac(a2-3)Gal(b1-4)GlcNAc
# How it was run: as §1
# [27] = molecular target: Neu5Ac(a2-3)Gal(b1-4)GlcNAc(b1-2)Man(a1-3)[GlcNAc(b1-2)Man(b1-4)GlcNAc(b1-2)Man(a1-6)]Man(b1-4)GlcNAc(b1-4)GlcNAc
# How it was run: as §1
# [28] = molecular target: Neu5Ac(a2-3)Gal(b1-4)GlcNAc(b1-2)Man(a1-3)[Neu5Ac(a2-6)Gal(b1-4)GlcNAc(b1-2)Man(a1-6)]Man(b1-4)GlcNAc(b1-4)GlcNAc
# How it was run: as §1
# [29] = molecular target: Neu5Ac(a2-3)Gal(b1-4)GlcNAc(b1-3)Gal(b1-3)GlcNAc
# How it was run: as §1
# [30] = molecular target: Neu5Ac(a2-3)Gal(b1-4)GlcNAc(b1-3)Gal(b1-4)GlcNAc
# How it was run: as §1
# [31] = molecular target: Neu5Ac(a2-3)Gal(b1-4)GlcNAc(b1-3)Gal(b1-4)GlcNAc(b1-3)Gal(b1-4)GlcNAc
# How it was run: as §1
binder,measurement,setting,value
"DC-ASPGR (Homo sapiens), CLC10_HUMAN (protein) LDQNSKFQRDLVTLRTDFSNFTSNTVAEIQALTSQGSSLEETIASLKAEVEGFKQERQAVHSEMLLRVQQLVQDLKKLTCQVATLNNNASTEGTCCPVNWVEHQDSCYWFSHSGMSWAEAEKYCQLKNAHLVVINSREEQNFVQKYLGSAYTWMGLSDPEGAWKWVDGTDYATGFQNWKPGQPDDWQGHGLGGGEDCAHFHPDGRWNDDVCQRPYHWVCEAGLGQTSQESHVEPKSCDKTHTCPPCPAPELLGGPSVFLFPPKPKDTLMISRTPEVTCVVVDVSHEDPEVKFNWYVDGVEVHNAKTKPREEQFNSTYRVVSVLTVLHQDWLNGKEYKCKVSNKGLPSSIEKTISKAKGQPREPQVYTLPPSQEEMTKNQVSLTCLVKGFYPSDIAVEWESNGQPENNYKTTPPVLDSDGSFFLYSRLTVDKSRWQEGNVFSCSVMHEALHNHYTQK",glycan array binding signal (z-score),[1],-0.239
same,glycan array binding signal (z-score),[2],-0.232
same,glycan array binding signal (z-score),Man(a1-2)Man(a1-3)Man,-0.166
same,glycan array binding signal (z-score),[3],-0.26
same,glycan array binding signal (z-score),[4],-0.265
same,glycan array binding signal (z-score),[5],-0.291
same,glycan array binding signal (z-score),[6],-0.204
same,glycan array binding signal (z-score),[7],-0.06
same,glycan array binding signal (z-score),[8],-0.246
same,glycan array binding signal (z-score),Man(a1-3)[Man(a1-6)]Man,-0.187
same,glycan array binding signal (z-score),[9],-0.242
same,glycan array binding signal (z-score),[10],-0.253
same,glycan array binding signal (z-score),[11],-0.292
same,glycan array binding signal (z-score),[12],-0.221
same,glycan array binding signal (z-score),Man(a1-6)Man,-0.174
same,glycan array binding signal (z-score),Man(b1-4)GlcNAc,-0.313
same,glycan array binding signal (z-score),Neu5Ac(a2-3)Gal,-0.279
same,glycan array binding signal (z-score),[13],-0.259
same,glycan array binding signal (z-score),[14],-0.165
same,glycan array binding signal (z-score),[15],-0.067
same,glycan array binding signal (z-score),[16],-0.161
same,glycan array binding signal (z-score),[17],-0.227
same,glycan array binding signal (z-score),[18],-0.274
same,glycan array binding signal (z-score),[19],-0.155
same,glycan array binding signal (z-score),[20],-0.24
same,glycan array binding signal (z-score),[21],-0.23
same,glycan array binding signal (z-score),[22],0.403
same,glycan array binding signal (z-score),[23],0.282
same,glycan array binding signal (z-score),[24],-0.172
same,glycan array binding signal (z-score),[25],0.1
same,glycan array binding signal (z-score),Neu5Ac(a2-3)Gal(b1-4)Glc,-0.185
same,glycan array binding signal (z-score),[26],-0.156
same,glycan array binding signal (z-score),[27],0.699
same,glycan array binding signal (z-score),[28],0.413
same,glycan array binding signal (z-score),[29],-0.106
same,glycan array binding signal (z-score),[30],-0.328
same,glycan array binding signal (z-score),[31],-0.292
